The text below walks through data of publication PMC12820563.

The list shows a part of the results. The list includes weakly bound sequences.

The target of the test is T1, MBP-FoxP3dN (UniProt Q99JB6).
T1 sequence: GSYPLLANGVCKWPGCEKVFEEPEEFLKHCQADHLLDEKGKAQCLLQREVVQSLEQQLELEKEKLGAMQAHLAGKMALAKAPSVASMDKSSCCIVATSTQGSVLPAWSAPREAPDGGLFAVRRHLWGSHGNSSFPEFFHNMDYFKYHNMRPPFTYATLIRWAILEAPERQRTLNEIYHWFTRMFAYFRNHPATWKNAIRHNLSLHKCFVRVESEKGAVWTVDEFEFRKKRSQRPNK
Nature of the test: PD-seq (MBP pull-down with sequencing). The following applies: 20 mM Tris-HCl pH 7.5, 100 mM NaCl, 1.5 mM MgCl2, 0.4 uM protein, 0.1 uM dsDNA library, 30 min, room temperature, amylose pull-down; high values mean tight binding; double strand, one strand shown.
Consider “GATGATTGTTCTCCCAGCTGATGAATTTGGAATCTCGAGTAAACAAATTTTCCTAATCTTTCTGTTCAAGCGCCATCTAC”, for which the binding signal (RPM ratio (pull-down/input)) was found to be 1.64.

For “GATGATTGTTCTCCCAGCTGATGAATTCATAGTGTCGAGTAAACAAATTTTCCTAATCTTTCTGTTCAAGCGCCATCTAC”, the binding signal (RPM ratio (pull-down/input)) was 0.918.

Regarding “GATGATTGTTCTCCCAGCTGATGAATTTACAAAGTCGAGTAAACAAATTTTCCTAATCTTTCTGTTCAAGCGCCATCTAC”, the binding signal (RPM ratio (pull-down/input)) was 0.258. The figure for “GATGATTGTTCTCCCAGCTGATGAATTTTTAATGTCGAGTAAACAAATTTTCCTAATCTTTCTGTTCAAGCGCCATCTAC” is 0.35; for “GATGATTGTTCTCCCAGCTGATGAATTCGACTGTTCGAGTAAACAAATTTTCCTAATCTTTCTGTTCAAGCGCCATCTAC” it is 0.593. The figure for “GATGATTGTTCTCCCAGCTGATGAATTGCGTTGATCGAGTAAACAAATTTTCCTAATCTTTCTGTTCAAGCGCCATCTAC” is 1.7. The figure for “GATGATTGTTCTCCCAGCTGATGAATTGGCAGCATCGAGTAAACAAATTTTCCTAATCTTTCTGTTCAAGCGCCATCTAC” is 0.886; for “GATGATTGTTCTCCCAGCTGATGAATTCTTATGATCGAGTAAACAAATTTTCCTAATCTTTCTGTTCAAGCGCCATCTAC” it is 0.341; for “GATGATTGTTCTCCCAGCTGATGAATTCAATCCCTCGAGTAAACAAATTTTCCTAATCTTTCTGTTCAAGCGCCATCTAC” it is 0.315. Take “GATGATTGTTCTCCCAGCTGATGAATTTATATAGTCGAGTAAACAAATTTTCCTAATCTTTCTGTTCAAGCGCCATCTAC”: the binding signal (RPM ratio (pull-down/input)) turned out to be 1.39. On to “GATGATTGTTCTCCCAGCTGATGAATTGATAATGTCGAGTAAACAAATTTTCCTAATCTTTCTGTTCAAGCGCCATCTAC”, for which the binding signal (RPM ratio (pull-down/input)) worked out at 0.495.

As to “GATGATTGTTCTCCCAGCTGATGAATTAGTTTCGTCGAGTAAACAAATTTTCCTAATCTTTCTGTTCAAGCGCCATCTAC”, the binding signal (RPM ratio (pull-down/input)) was found to be 2.39. Then “GATGATTGTTCTCCCAGCTGATGAATTTCGCCTGTCGAGTAAACAAATTTTCCTAATCTTTCTGTTCAAGCGCCATCTAC”, with 5.23.

On to “GATGATTGTTCTCCCAGCTGATGAATTCCCCACCTCGAGTAAACAAATTTTCCTAATCTTTCTGTTCAAGCGCCATCTAC”, for which the binding signal (RPM ratio (pull-down/input)) worked out at 0.213.

Consider “GATGATTGTTCTCCCAGCTGATGAATTGCGCTCTTCGAGTAAACAAATTTTCCTAATCTTTCTGTTCAAGCGCCATCTAC”, for which the binding signal (RPM ratio (pull-down/input)) is 1.2.

Turning to “GATGATTGTTCTCCCAGCTGATGAATTTGCAACGTCGAGTAAACAAATTTTCCTAATCTTTCTGTTCAAGCGCCATCTAC”, the binding signal (RPM ratio (pull-down/input)) turned out to be 2.24.

Regarding “GATGATTGTTCTCCCAGCTGATGAATTTGCTACCTCGAGTAAACAAATTTTCCTAATCTTTCTGTTCAAGCGCCATCTAC”, the binding signal (RPM ratio (pull-down/input)) amounted to 1.25. Then “GATGATTGTTCTCCCAGCTGATGAATTATTTATGTCGAGTAAACAAATTTTCCTAATCTTTCTGTTCAAGCGCCATCTAC”, with 2.12; and “GATGATTGTTCTCCCAGCTGATGAATTGAAAACCTCGAGTAAACAAATTTTCCTAATCTTTCTGTTCAAGCGCCATCTAC”, with 0.255. The figure for “GATGATTGTTCTCCCAGCTGATGAATTCCTGGATTCGAGTAAACAAATTTTCCTAATCTTTCTGTTCAAGCGCCATCTAC” is 0.249.

Consider “GATGATTGTTCTCCCAGCTGATGAATTGATTTCCTCGAGTAAACAAATTTTCCTAATCTTTCTGTTCAAGCGCCATCTAC”, for which the binding signal (RPM ratio (pull-down/input)) was 0.953. The figure for “GATGATTGTTCTCCCAGCTGATGAATTTGCTATATCGAGTAAACAAATTTTCCTAATCTTTCTGTTCAAGCGCCATCTAC” is 1.68; for “GATGATTGTTCTCCCAGCTGATGAATTTATAACCTCGAGTAAACAAATTTTCCTAATCTTTCTGTTCAAGCGCCATCTAC” it is 0.577. The figure for “GATGATTGTTCTCCCAGCTGATGAATTGGCTACATCGAGTAAACAAATTTTCCTAATCTTTCTGTTCAAGCGCCATCTAC” is 0.479; for “GATGATTGTTCTCCCAGCTGATGAATTTTAAGCCTCGAGTAAACAAATTTTCCTAATCTTTCTGTTCAAGCGCCATCTAC” it is 0.344. Then “GATGATTGTTCTCCCAGCTGATGAATTAAACCTATCGAGTAAACAAATTTTCCTAATCTTTCTGTTCAAGCGCCATCTAC”, with 0.337; and “GATGATTGTTCTCCCAGCTGATGAATTTCCACCATCGAGTAAACAAATTTTCCTAATCTTTCTGTTCAAGCGCCATCTAC”, with 0.343; and “GATGATTGTTCTCCCAGCTGATGAATTCTGTAACTCGAGTAAACAAATTTTCCTAATCTTTCTGTTCAAGCGCCATCTAC”, with 2.21. As for “GATGATTGTTCTCCCAGCTGATGAATTGTAAGTATCGAGTAAACAAATTTTCCTAATCTTTCTGTTCAAGCGCCATCTAC”, the binding signal (RPM ratio (pull-down/input)) is 0.947. Then “GATGATTGTTCTCCCAGCTGATGAATTCTCACCCTCGAGTAAACAAATTTTCCTAATCTTTCTGTTCAAGCGCCATCTAC”, with 0.25; and “GATGATTGTTCTCCCAGCTGATGAATTAGCGCTGTCGAGTAAACAAATTTTCCTAATCTTTCTGTTCAAGCGCCATCTAC”, with 0.488; and “GATGATTGTTCTCCCAGCTGATGAATTCGGAAATTCGAGTAAACAAATTTTCCTAATCTTTCTGTTCAAGCGCCATCTAC”, with 0.499.

As to “GATGATTGTTCTCCCAGCTGATGAATTTCTTTCCTCGAGTAAACAAATTTTCCTAATCTTTCTGTTCAAGCGCCATCTAC”, the binding signal (RPM ratio (pull-down/input)) is 0.431.

On to “GATGATTGTTCTCCCAGCTGATGAATTTCATTCTTCGAGTAAACAAATTTTCCTAATCTTTCTGTTCAAGCGCCATCTAC”, for which the binding signal (RPM ratio (pull-down/input)) amounted to 0.375. Then “GATGATTGTTCTCCCAGCTGATGAATTGGTGCCGTCGAGTAAACAAATTTTCCTAATCTTTCTGTTCAAGCGCCATCTAC”, with 0.709; and “GATGATTGTTCTCCCAGCTGATGAATTCGCCCAATCGAGTAAACAAATTTTCCTAATCTTTCTGTTCAAGCGCCATCTAC”, with 0.293. The figure for “GATGATTGTTCTCCCAGCTGATGAATTAGTATGTTCGAGTAAACAAATTTTCCTAATCTTTCTGTTCAAGCGCCATCTAC” is 4.19; for “GATGATTGTTCTCCCAGCTGATGAATTGGTTGGTTCGAGTAAACAAATTTTCCTAATCTTTCTGTTCAAGCGCCATCTAC” it is 3.77. The figure for “GATGATTGTTCTCCCAGCTGATGAATTGCGGGTCTCGAGTAAACAAATTTTCCTAATCTTTCTGTTCAAGCGCCATCTAC” is 1.1.

For “GATGATTGTTCTCCCAGCTGATGAATTAACCGGGTCGAGTAAACAAATTTTCCTAATCTTTCTGTTCAAGCGCCATCTAC”, the binding signal (RPM ratio (pull-down/input)) is 0.173.
